Laboratory results reported in US20250376539A1 (KIRA PHARMACEUTICALS SUZHOU, published 2025).

Key:
[1] = target: T1, recombinant human C2a, C-terminal 6His-tag, made in house (CHO cell expression) (human, UniProt P06681 244-752); test: binding kinetics (BLI presumed)
T1 sequence: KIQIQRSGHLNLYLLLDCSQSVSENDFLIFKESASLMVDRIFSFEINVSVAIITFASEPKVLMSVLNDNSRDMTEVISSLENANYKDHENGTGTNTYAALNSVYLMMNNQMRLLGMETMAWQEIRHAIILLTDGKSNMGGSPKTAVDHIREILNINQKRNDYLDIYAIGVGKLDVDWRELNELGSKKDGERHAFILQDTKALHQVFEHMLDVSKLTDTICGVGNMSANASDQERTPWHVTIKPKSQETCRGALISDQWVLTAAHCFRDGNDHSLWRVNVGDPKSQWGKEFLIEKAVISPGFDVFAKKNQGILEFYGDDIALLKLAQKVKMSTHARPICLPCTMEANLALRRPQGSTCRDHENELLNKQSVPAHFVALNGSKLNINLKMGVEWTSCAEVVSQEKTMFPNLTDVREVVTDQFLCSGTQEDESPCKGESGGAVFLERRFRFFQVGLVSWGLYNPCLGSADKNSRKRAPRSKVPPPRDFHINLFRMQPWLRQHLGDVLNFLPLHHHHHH

[2] = target: T2, recombinant human complement C2 (NP_000054.2), C-terminal 6His-tag, made in house (CHO cell expression) (human, UniProt P06681 21-752); test: BLI (Gator), antibody on probe; 600 s association at pH 7.4, 600 s dissociation at pH 5.8
T2 construct: a linker before the tag is not described; also called human C2; Human C2
T2 sequence: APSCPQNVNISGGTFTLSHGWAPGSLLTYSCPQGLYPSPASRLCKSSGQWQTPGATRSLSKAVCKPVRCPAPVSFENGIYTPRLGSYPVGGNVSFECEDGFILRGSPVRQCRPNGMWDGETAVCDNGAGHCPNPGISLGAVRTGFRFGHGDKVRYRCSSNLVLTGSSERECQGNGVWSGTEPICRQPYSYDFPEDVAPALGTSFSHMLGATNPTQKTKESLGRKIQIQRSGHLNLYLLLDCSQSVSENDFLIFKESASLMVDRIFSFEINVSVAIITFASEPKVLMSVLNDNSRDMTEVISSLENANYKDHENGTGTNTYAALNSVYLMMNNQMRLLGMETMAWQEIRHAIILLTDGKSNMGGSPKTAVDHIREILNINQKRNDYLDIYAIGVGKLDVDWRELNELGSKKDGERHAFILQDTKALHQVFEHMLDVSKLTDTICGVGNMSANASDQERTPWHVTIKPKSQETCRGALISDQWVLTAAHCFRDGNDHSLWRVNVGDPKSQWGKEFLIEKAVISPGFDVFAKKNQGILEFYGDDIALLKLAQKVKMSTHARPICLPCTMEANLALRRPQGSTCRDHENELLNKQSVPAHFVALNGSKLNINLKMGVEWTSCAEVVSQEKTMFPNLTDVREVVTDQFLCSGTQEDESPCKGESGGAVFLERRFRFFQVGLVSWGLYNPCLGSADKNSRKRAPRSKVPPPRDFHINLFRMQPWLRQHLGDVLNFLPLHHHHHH
Description: (§1) The histidine mutant constructs in Table 4 were tested for their pH-dependent dissociation from human C2. Probe-immobilized anti-C2 antibodies were incubated with C2 at pH 7.4 for 600s, followed by a 600s dissociation period in K Buffer at pH 7.4 or pH 5.8. The data were processed and analyzed by the Gator evaluation software.
(§2) Non-fusion mAb were used for comparison.

[3] = target: T3, recombinant cynomolgus (cyno) complement C2 (XP_005553508.1), C-terminal 6His-tag, made in house (CHO cell … (cynomolgus monkey (Macaca fascicularis), UniProt P06681 21-752 (human entry))); test: as above
T3 construct: also called cyno C2; Cyno C2
T3 chain: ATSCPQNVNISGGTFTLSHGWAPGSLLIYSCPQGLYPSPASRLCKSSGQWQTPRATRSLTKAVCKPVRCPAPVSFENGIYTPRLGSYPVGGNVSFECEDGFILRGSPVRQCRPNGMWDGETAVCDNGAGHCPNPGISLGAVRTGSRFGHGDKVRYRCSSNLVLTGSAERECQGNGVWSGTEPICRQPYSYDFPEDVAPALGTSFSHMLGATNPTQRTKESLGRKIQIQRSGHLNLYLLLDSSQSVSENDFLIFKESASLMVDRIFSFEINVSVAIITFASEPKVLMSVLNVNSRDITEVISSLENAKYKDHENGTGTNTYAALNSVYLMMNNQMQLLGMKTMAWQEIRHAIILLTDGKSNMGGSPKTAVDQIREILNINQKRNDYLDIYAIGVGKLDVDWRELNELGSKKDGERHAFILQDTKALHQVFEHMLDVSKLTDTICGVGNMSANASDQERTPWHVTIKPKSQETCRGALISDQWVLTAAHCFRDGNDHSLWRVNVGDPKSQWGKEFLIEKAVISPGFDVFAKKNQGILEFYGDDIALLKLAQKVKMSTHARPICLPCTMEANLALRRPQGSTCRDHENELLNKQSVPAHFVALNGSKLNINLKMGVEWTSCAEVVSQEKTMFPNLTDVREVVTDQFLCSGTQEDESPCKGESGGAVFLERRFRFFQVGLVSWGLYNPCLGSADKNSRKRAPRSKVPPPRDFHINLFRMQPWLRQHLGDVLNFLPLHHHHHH
Description: as §1, §2

Kd [1]: 0.221 nM | koff [1]: 4.01e-05 s⁻¹ | kon [1]: 182000 M⁻¹ s⁻¹ | Dissociation (%) pH 5.8 [2]: 0.93% | Dissociation (%) pH 5.8 [3]: 6.05%
B1: 69.44FH (Factor H 1-5 fusion with 69.44; FH1-5 fused to the heavy chain C-terminus) (other)
heavy: QVQLVQSGAEVKKPGASVKVSCKASGYSFTTYYMYWVRQAPGQGLEWMGIITPSGGSTTYAQKFQDRVTMTRDASTTTVYMELSSLRSEDTAVYYCARGYEGSYGFDHWGQGTLVTVSSASTKGPSVFPLAPCSRSTSESTAALGCLVKDYFPEPVTVSWNSGALTSGVHTFPAVLQSSGLYSLSSVVTVPSSSLGTKTYTCNVDHKPSNTKVDKRVESKYGPP[human IgG4 Fc with S228P M428L N434A (EU numbers) not shown]EDCNELPPRRNTEILTGSWSDQTYPEGTQAIYKCRPGYRSLGNIIMVCRKGEWVALNPLRKCQKRPCGHPGDTPFGTFTLTGGNVFEYGVKAVYTCNEGYQLLGEINYRECDTDGWTNDIPICEVVKCLPVTAPENGKIVSSAMEPDREYHFGQAVRFVCNSGYKIEGDEEMHCSDDGFWSKEKPKCVEISCKSPDVINGSPISQKIIYKENERFQYKCNMGYEYSERGDAVCTESGWRPLPSCEEKSCDNPYIPNGDYSPLRIKHRTGDEITYQCRNGFYPATRGNTAKCTSTGWIPAPRCTLKP
light: SYELTQPPSVSLSPGQTASITCSGDKLGNKYTCWYQQKPGQSPVLVIYQDNKRPSGIPERFSGSNSGNTATLTISGTQAMDEADYYCQTWDSSTAVFGGGTKLTVLGQPKAAPSVTLFPPSSEELQANKATLVCLISDFYPGAVTVAWKADSSPVKAGVETTTPSKQSNNKYAASSYLSLTPEQWKSHRSYSCQVTHEGSTVEKTVAPTECS
notes: Antibody-factor H fusion protein
